According to the supplement of paper PMC5499739:
In all, about 16,000 sequences were measured (“Z-score”: median about -0.37, highest 2% from about 3.2 on). This is one part of the list.

Test system: RBM10 RRM1-ZnF (GST-tagged construct)
Assay: RNAcompete 7-mer binding Z-score; higher = stronger binding preference
Outline: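 In 1 ml Hepes pH 7.8 buffer with KCl, NaCl, glycerol, DTT, BSA and glutathione Sepharose beads, GST-tagged RBM10 constructs (20 pmol) were incubated for 30 min at 4°C with 1.5 nmol of a designed pool of 241 399 RNAs up to 41 nt. Four 2-min washes at 4°C followed, and bound RNA was detected by microarray hybridisation. Heptamer motif enrichment was expressed as a one-sided Z-score across probes containing each motif.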

Sequence | RNAcompete 7-mer binding Z-score
ACCAGUA | -0.542
UGCUAGC | -0.431
GUAUGAC | 0.283
AGGAUUA | 0.735
AAGGGAA | 4.37
CAGAAAA | -0.197
AAGGGGC | 3.13
GACCCCU | -0.704
GCUUCAA | -0.529
CCCGCUG | -0.295
GACAUGC | -0.353
GGAGGCU | 1.41
CCUCUGG | -0.305
UCAGGUU | 0.41
AUGGGUU | 2.89
ACAGGGC | 1.84
GGGCAAA | 1.62
GAUCCAC | -0.704
AGCUCCA | -0.545
GCGAGAA | 0.413
CGUCCUC | -0.694
CCCAACA | -0.496
UGUCAAC | -0.552

Sequence | RNAcompete 7-mer binding Z-score
ACUCGAA | -0.539
CCGCUGC | -0.22
GCACGCG | 0.313
GCCGUUG | -0.305
CGCCAUG | -0.35
CUAAGUC | -0.613
UCCCUAU | -0.743
AGAUGAC | -0.0902
CGUGAAC | -0.301
CCUCUUU | -0.974
GCGAUAG | 0.608
AACAACC | -0.72
GUCCCUG | -0.464
CAGUAUG | 0.235
AUCUCUG | -0.857
GGAGUUG | 2.64
AACGUCU | -0.581
UCGUUCA | -0.565
UGUAACU | -0.331
GUAGUGC | 0.495
CGGGCAA | 0.755
CCUGGUA | -0.561
AGUUACC | -0.327

Sequence | RNAcompete 7-mer binding Z-score
GCCGCUU | -0.867
AGAAAGC | -0.0155
GGCGUUU | 0.179
CCACCUG | -0.49
CGGAUAG | 1.46
UACUUCA | -0.61
AUACCUU | -0.886
UGCCUUC | -0.701
CAGGUCC | -0.357
CGAUUUC | -0.87
GGGGCCC | 0.634
UCCAGUG | -0.396
GGCAUAC | 0.153
UAAUCCU | -0.805
UGCCGCA | -0.477
ACGAAUG | 0.355
CUGAGGC | -0.0155
CUCCCGU | -0.604
GGGUAGA | 3.74
GAUCUUC | -0.769
AAUAAGA | 0.115
UCAAUGA | -0.318
GCCAGCG | -0.0544

Sequence | RNAcompete 7-mer binding Z-score
GUAUGAA | 0.384
AAGGAUG | 4.14
GAUCCGC | -0.772
GCCACUG | -0.327
AAUACCA | -0.655
ACCUUUC | -0.945
GCGCAAC | -0.35
ACCAGGG | 1.48
GCUCCAC | -0.519
GACCGAA | -0.727
CCAGCAU | -0.659
CCGCUAC | -0.685
UUGAGGA | 1.14
CCACCGA | -0.295
AACUAAC | -0.633
AGACGGA | 0.949
UACCACU | -0.558
CAGUAUC | -0.548
CUUUGCA | -0.932
GAAAGCU | 0.14
UAUGCGG | 0.43
CCUUGAA | -0.746
GCCAACA | -0.288
